Measurements: patent US8975247B2, “Methods and compositions of treating a flaviviridae family viral infection” (priority 2009, dated 2015)
Like-named read-outs stand apart in the source and are kept apart here.

Tests used:
[1] = system: HCV genotype 2a infectious clone; assay: HCV genotype 2a infectious clone assay (Renilla luciferase); type: cell-based; settings: Hepatitis C virus, read-out: 2a % activity @ 5 μM, % replication activity of control remaining at 5 μM test compound
[2] = system: Huh7.5 cells; type: cell-based

SMILES | activity at 5 µM [1] [%] | 2a Cell Viability @ 5 μM ([2]; human, 3 days, 5 μM) | 2a Cell Viability @ 10 μM ([2]; human, 3 days, 10 μM) | 2a Cell Viability @ 5 μM ([2]; % cell survival at 5 μM) [%] | 2a Cell Viability @ 10 μM ([2]; % cell survival at 10 μM) [%]
CCc1nc2ccccc2n1Cc1ccc(Cl)cc1 [EBP008] | 83 | 91% | 82% | – | –
CC(C)(C)C(=O)NCc1nc2ccccc2[nH]1 [EBP012] | 73 | > 100% | 93% | – | –
CC(C)c1nc2ccccc2n1Cc1ccc(Cl)cc1 [EBP017] | 62 | 81% | 88% | – | –
Clc1ccc(Cn2c(Cc3ccccc3)nc3ccccc32)cc1 [EBP020] | 80 | > 100% | 68% | – | –
Cc1cc2ncn(Cc3ccc(Cl)c(Cl)c3)c2cc1C [EBP048] | 67 | 100% | 89% | – | –
Nc1nc2ccccc2n1C(=O)c1ccc(Cl)cc1 [EBP052] | 82 | 91% | 82% | – | –
OCc1nc2ccccc2n1Cc1ccc(Br)cc1 [EBP059] | 50 | – | – | – | –
Cc1cc2ncn(Cc3ccc(C#N)cc3)c2cc1C [EBP061] | 76 | 86% | 88% | – | –
COC(=O)c1ccc(Cn2cnc3ccccc32)cc1 [EBP062] | 59 | – | – | – | –
Oc1ccc(Cn2cnc3ccccc32)cc1 [EBP067] | 88 | 85% | 88% | – | –
Cc1cc2nc(/C=C/c3ccccc3)n(Cc3ccc(Cl)cc3)c2cc1C [EBP101] | 57 | – | – | > 100 | 95
Cc1cc2c(ncn2Cc2ccccc2)c(N)c1C [EBP102] | 80 | 100, 100% | 100, 100% | – | –
COc1ccc(Cn2c(C)nc3c(N)c(C)c(C)cc32)cc1 [EBP104] | 72 | 98% | 96% | – | –
CS(=O)(=O)c1ccc2c(c1)nc(C(F)(F)F)n2Cc1ccccc1 [EBP108] | 61 | – | – | 100 | 96
CCOC(=O)Cc1nc2cc(S(C)(=O)=O)ccc2n1Cc1ccccc1 [EBP109] | 76 | 100, 100% | 100, 100% | – | –
CS(=O)(=O)c1ccc2c(c1)nc(S)n2Cc1ccccc1 [EBP110] | 76 | 98% | 90% | – | –
Cc1cc2ncn(Cc3cc(Cl)cc4c3OCCO4)c2cc1C [EBP113] | 68 | 92% | 90% | – | –

SMILES | activity at 5 µM [1] [%] | 2a Cell Viability @ 5 μM ([2]; human, 3 days, 5 μM) | 2a Cell Viability @ 10 μM ([2]; human, 3 days, 10 μM) | 2a Cell Viability @ 5 μM ([2]; % cell survival at 5 μM) [%] | 2a Cell Viability @ 10 μM ([2]; % cell survival at 10 μM) [%]
Cc1cc2nc(CN3CCCC3)n(Cc3ccc(Cl)cc3)c2cc1C [EBP126] | 65 | > 100% | 77% | – | –
Clc1ccc(Cn2c(CN3CCCC3)nc3cc(Cl)c(Cl)cc32)cc1 [EBP127] | 80 | >100, >100% | >100, >100% | – | –
Cc1cc2nc(-c3ccc[nH]c3=O)n(Cc3ccc(Cl)cc3)c2cc1C [EBP128] | 76 | 92% | 94% | – | –
Cc1cc2nc(-c3ccc(=O)[nH]c3)n(Cc3ccc(Cl)cc3)c2cc1C [EBP129] | 79 | 90% | 78% | – | –
COC(=O)c1ccc(Cn2c(/C=C/c3ccccc3)nc3cc(C)c(C)cc32)cc1 [EBP131] | 71 | 94% | 61% | – | –
COc1ccc(Cn2c(C)nc3c(NS(=O)(=O)c4ccc(F)cc4)c(C)c(C)cc32)cc1 [EBP132] | 70 | 93% | 79% | – | –
Clc1ccc(Cn2c(CN3CCCCC3)nc3ccccc32)cc1 [EBP133] | 86 | >100, >100% | >100, >100% | – | –
CCCN(CCC)Cc1nc2ccccc2n1Cc1ccc(Cl)cc1 [EBP137] | 69 | – | – | – | –
COCC1CCN(Cc2nc3ccccc3n2Cc2ccc(Cl)cc2)C1 (stereo not shown) [EBP138] | 84 | 98, 98% | 98, 98% | – | –
O=C(O)C1CCN(Cc2nc3ccccc3n2Cc2ccc(Cl)cc2)C1 (stereo not shown) [EBP141] | 84 | >100, >100% | >100, >100% | – | –
COCC1CCCN1Cc1nc2ccccc2n1Cc1ccc(Cl)cc1 (stereo not shown) [EBP142] | 77 | >100, >100% | >100, >100% | – | –
O=C1CCCN1Cc1nc2ccccc2n1Cc1ccc(Cl)cc1 [EBP144] | 77 | >100, >100% | >100, >100% | – | –
COC(=O)c1ccc(Cn2c(CN3CCCC3)nc3ccccc32)cc1 [EBP152] | 77 | >100, >100% | >100, >100% | – | –
O=C(O)c1ccc(Cn2c(CN3CCCC3)nc3ccccc32)cc1 [EBP153] | 84 | >100, >100% | >100, >100% | – | –
COC(=O)c1cccc(Cn2c(CN3CCCC3)nc3ccccc32)c1 [EBP154] | 89 | >100, >100% | >100, >100% | – | –
O=C(O)c1cccc(Cn2c(CN3CCCC3)nc3ccccc32)c1 [EBP155] | 84 | – | – | – | –
